{"source": "paper PMC4336329", "about": "(PLoS ONE, 2015)", "note": "Screen size: about 310,000 compounds; about 2,200 (0.71%) showed an effect of 50% or more. Effects have a minus sign here. The list shows a part of the results."}
{"target": "human ether-à-go-go-related gene (hERG) potassium channel (human, UniProt Q12809)", "sequence (Q12809 whole entry, looked up)": "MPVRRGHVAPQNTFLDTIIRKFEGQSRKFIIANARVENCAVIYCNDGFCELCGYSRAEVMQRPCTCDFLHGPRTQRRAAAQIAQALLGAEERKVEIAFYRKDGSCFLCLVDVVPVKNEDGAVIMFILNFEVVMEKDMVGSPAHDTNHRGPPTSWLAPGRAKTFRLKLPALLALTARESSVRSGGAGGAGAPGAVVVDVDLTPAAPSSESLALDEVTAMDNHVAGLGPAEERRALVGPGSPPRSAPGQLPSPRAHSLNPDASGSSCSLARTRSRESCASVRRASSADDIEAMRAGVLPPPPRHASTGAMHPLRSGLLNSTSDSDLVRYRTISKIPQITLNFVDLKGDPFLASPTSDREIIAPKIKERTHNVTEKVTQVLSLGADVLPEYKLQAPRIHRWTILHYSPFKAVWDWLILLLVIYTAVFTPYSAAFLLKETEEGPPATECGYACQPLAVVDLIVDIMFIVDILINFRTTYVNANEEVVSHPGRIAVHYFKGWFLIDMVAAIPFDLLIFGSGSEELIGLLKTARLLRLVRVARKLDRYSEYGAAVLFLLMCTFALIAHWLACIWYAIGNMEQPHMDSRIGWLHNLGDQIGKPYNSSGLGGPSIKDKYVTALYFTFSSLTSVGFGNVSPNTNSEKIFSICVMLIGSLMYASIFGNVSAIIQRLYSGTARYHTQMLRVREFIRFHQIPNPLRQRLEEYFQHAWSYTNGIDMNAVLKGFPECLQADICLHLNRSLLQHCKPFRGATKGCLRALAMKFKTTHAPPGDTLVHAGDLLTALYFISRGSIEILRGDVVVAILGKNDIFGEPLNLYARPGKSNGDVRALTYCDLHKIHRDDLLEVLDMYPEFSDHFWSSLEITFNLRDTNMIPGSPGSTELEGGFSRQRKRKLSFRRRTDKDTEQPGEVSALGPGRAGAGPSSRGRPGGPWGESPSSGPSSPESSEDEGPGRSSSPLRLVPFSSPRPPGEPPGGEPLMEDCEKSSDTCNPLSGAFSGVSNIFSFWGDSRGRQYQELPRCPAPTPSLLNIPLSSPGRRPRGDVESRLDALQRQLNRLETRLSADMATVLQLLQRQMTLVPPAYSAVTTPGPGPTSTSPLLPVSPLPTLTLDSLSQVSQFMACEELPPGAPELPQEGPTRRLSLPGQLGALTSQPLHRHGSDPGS", "experiment": "primary screen, population patch clamp on CHO cells stably expressing hERG", "units": {"hERG current change (%, negative = inhibition) at 1uM": "%"}}
{"smiles": "COc1cc([C@@H]2CC=C(C(=O)O)[C@H](c3ccc(Cl)cc3)N2S(=O)(=O)c2ccc(C)cc2)cc(OC)c1OC", "hERG current change (%, negative = inhibition) at 1uM": 4.44}
{"smiles": "O=c1[nH]c(CN2CCN(Cc3ccccc3)CC2)nc2scc(-c3ccccc3)c12", "hERG current change (%, negative = inhibition) at 1uM": -2.35}
{"smiles": "CC(=O)Nc1ccc(S(=O)(=O)NNC(=O)COc2cccc3ccccc23)cc1", "hERG current change (%, negative = inhibition) at 1uM": 8.5}
{"smiles": "CNC[C@@H](CC1CCCCC1)NC[C@H](CC(C)C)NCCc1cccc(C(F)(F)F)c1", "hERG current change (%, negative = inhibition) at 1uM": 7.55}
{"smiles": "COc1ccccc1CNC(=O)c1ccc2c(=O)n3c(nc2c1)CCCCC3", "hERG current change (%, negative = inhibition) at 1uM": 8.59}
{"smiles": "CCOC(=O)C1=C(C)Nc2[nH]c(=O)[nH]c(=O)c2C1c1cccs1", "note": "(stereo not shown)", "hERG current change (%, negative = inhibition) at 1uM": 2.68}
{"smiles": "COc1ccc(-n2c(=O)cc(N3CCN(c4ccccc4F)CC3)[nH]c2=O)cc1", "hERG current change (%, negative = inhibition) at 1uM": -0.226}
{"smiles": "NS(=O)(=O)c1ccc(CCNC(=O)Cc2ccc(S(=O)(=O)N3CCCC3)s2)cc1", "hERG current change (%, negative = inhibition) at 1uM": 14.9}
{"smiles": "O=C(NC1CCCCC1)C1CCCN1C(=O)Nc1ccccc1", "note": "(stereo not shown)", "hERG current change (%, negative = inhibition) at 1uM": 16.1}
{"smiles": "O=C(c1cc(COc2ccc(F)cc2Cl)on1)N1CCCCCCC1", "hERG current change (%, negative = inhibition) at 1uM": 8.65}
{"smiles": "CC(=O)C(C(C)=O)C(NC(=O)c1cccnc1)(C(F)(F)F)C(F)(F)F", "hERG current change (%, negative = inhibition) at 1uM": 1.23}
{"smiles": "CCCOC(=O)c1ccc(NC(=O)c2nc3nc(C)cc(C)n3n2)cc1", "hERG current change (%, negative = inhibition) at 1uM": 5.72}
{"smiles": "O=C(/C=C/c1cccc([N+](=O)[O-])c1)N1CCN(Cc2ccccc2)CC1", "hERG current change (%, negative = inhibition) at 1uM": -20.3}
{"smiles": "CC1CCC2(CC1)NC(=O)N(CC(=O)c1cccn1C)C2=O", "note": "(stereo not shown)", "hERG current change (%, negative = inhibition) at 1uM": 13.9}
{"smiles": "O=C(O)Cn1nnc(COc2ccccc2)n1", "hERG current change (%, negative = inhibition) at 1uM": 12.4}
{"smiles": "O=C(OCC1OC(n2cc(Br)c(=O)[nH]c2=O)C(Br)C1O)c1ccccc1", "note": "(stereo not shown)", "hERG current change (%, negative = inhibition) at 1uM": 11.7}
{"smiles": "O=C(/C=C/c1ccc(N2CCCCC2)c([N+](=O)[O-])c1)c1ccc(S(=O)(=O)N2CCCC2)cc1", "hERG current change (%, negative = inhibition) at 1uM": 10.8}
{"smiles": "COCCn1cnnc1SCC(=O)Nc1sccc1C(N)=O", "hERG current change (%, negative = inhibition) at 1uM": 8.53}
{"smiles": "Cc1ccc(S(=O)(=O)Oc2ccc(/C=C3/N=C(c4ccccc4)OC3=O)cc2)cc1", "hERG current change (%, negative = inhibition) at 1uM": 0.168}
{"smiles": "NS(=O)(=O)c1ccc(CCNC(=O)c2cc([N+](=O)[O-])ccc2N2CCOCC2)cc1", "hERG current change (%, negative = inhibition) at 1uM": -6.06}
{"smiles": "CCN(CC)C(=O)CC(c1cc(OC)c(OC)c(OC)c1)c1c(OC)cc(OC)c2ccc(=O)oc12", "note": "(stereo not shown)", "hERG current change (%, negative = inhibition) at 1uM": 5.07}
{"smiles": "Cc1cc([N+](=O)[O-])nn1CCCC(=O)Nc1cccc(Cl)c1Cl", "hERG current change (%, negative = inhibition) at 1uM": 2.92}
{"smiles": "COC(=O)C1CCN(S(=O)(=O)CCNC(=O)c2ccc3c(c2)OCO3)CC1", "hERG current change (%, negative = inhibition) at 1uM": 12.8}
{"smiles": "CC(C)(C)c1ccc(-c2nnc(N)s2)cc1", "hERG current change (%, negative = inhibition) at 1uM": 2.16}
{"smiles": "Cc1ccc(NC(=O)Cn2c(=O)n(Cc3ccco3)c(=O)c3ccccc32)c(C)c1", "hERG current change (%, negative = inhibition) at 1uM": 3.37}
{"smiles": "Cn1cnnc1SCC(=O)Nc1ccc(Cl)c(S(=O)(=O)N2CCOCC2)c1", "hERG current change (%, negative = inhibition) at 1uM": 11.8}
{"smiles": "Cc1ccccc1-c1nc(SCc2cccnc2)c2c(=O)n(C)c(=O)n(C)c2n1", "hERG current change (%, negative = inhibition) at 1uM": 15}
{"smiles": "COc1cc(C(=O)OCC(=O)N2CC(C)OC(C)C2)cc(OC)c1OC", "note": "(stereo not shown)", "hERG current change (%, negative = inhibition) at 1uM": 23.2}
{"smiles": "COc1ccc(OC)c(NC(=O)N[C@@H](Cc2ccccc2)C(=O)O)c1", "hERG current change (%, negative = inhibition) at 1uM": 4.68}
{"smiles": "CCC(=O)c1cc(F)c(N2CCN(S(=O)(=O)c3ccc(C)cc3)CC2)cc1C", "hERG current change (%, negative = inhibition) at 1uM": -5.99}
{"smiles": "O=C(CSc1ccccn1)Nc1nc2ccccc2s1", "hERG current change (%, negative = inhibition) at 1uM": 5.51}
{"smiles": "Cc1ccc(CNc2ccccc2C(=O)O)s1", "hERG current change (%, negative = inhibition) at 1uM": 15.7}
{"smiles": "CCCCC(=O)Nc1ccc(NC(=O)c2cnccn2)cn1", "hERG current change (%, negative = inhibition) at 1uM": 18.4}
{"smiles": "CCCN(C(=O)COC(=O)CCOc1ccccc1)c1c(N)n(Cc2ccccc2)c(=O)[nH]c1=O", "hERG current change (%, negative = inhibition) at 1uM": 2.16}
{"smiles": "Cc1ccccc1CSc1nc(-c2ccccc2)cc(=O)[nH]1", "hERG current change (%, negative = inhibition) at 1uM": 6.64}
{"smiles": "Cc1ccc(N(CC(=O)N2CCOCC2)S(=O)(=O)c2ccccc2)cc1", "hERG current change (%, negative = inhibition) at 1uM": 11.1}
{"smiles": "CC(C)CC(c1nnnn1CC1CCCO1)N1CCN(c2cccc(Cl)c2)CC1", "note": "(stereo not shown)", "hERG current change (%, negative = inhibition) at 1uM": 2.5}
{"smiles": "CCOC(=O)C1=C(C)NC2=C(C(=O)c3ccccc32)C1c1ccc(O)cc1", "note": "(stereo not shown)", "hERG current change (%, negative = inhibition) at 1uM": 11.2}
{"smiles": "O=C(COC(=O)CCC(=O)c1cccs1)Nc1cc(S(=O)(=O)N2CCOCC2)ccc1Cl", "hERG current change (%, negative = inhibition) at 1uM": -12.4}
{"smiles": "COc1cc(/C=C/C(=O)c2ccc(Cl)s2)cc(OC)c1O", "hERG current change (%, negative = inhibition) at 1uM": -4.35}
{"smiles": "O=C(NNc1ccccn1)C(=O)NNS(=O)(=O)c1ccc(F)cc1", "hERG current change (%, negative = inhibition) at 1uM": 6.06}
{"smiles": "O=C(COc1ccccc1)NC1CCS(=O)(=O)C1", "note": "(stereo not shown)", "hERG current change (%, negative = inhibition) at 1uM": 9.8}
{"smiles": "O=C1OC(c2ccccc2)c2ccccc21", "note": "(stereo not shown)", "hERG current change (%, negative = inhibition) at 1uM": 9.85}
{"smiles": "O=C(O)Cn1c(CC(=O)N2CCCC2)nc2ccccc21", "hERG current change (%, negative = inhibition) at 1uM": 13.5}
{"smiles": "COc1ccc(CCNC(=O)CN(c2ccccc2)S(C)(=O)=O)cc1OC", "hERG current change (%, negative = inhibition) at 1uM": 0.694}
{"smiles": "O=C(O)COc1ccc(-c2nnn(Cc3ccccc3F)n2)cc1", "hERG current change (%, negative = inhibition) at 1uM": 14.4}
{"smiles": "COc1cc(/C=C(\\C#N)C(=O)Nc2ccccc2C(=O)O)cc(Cl)c1OC", "hERG current change (%, negative = inhibition) at 1uM": 14.6}
{"smiles": "CCOC(=O)CN1C(=O)COc2ccc(C(C)(C)C)cc21", "hERG current change (%, negative = inhibition) at 1uM": -9.54}
{"smiles": "O=C1c2cccc([N+](=O)[O-])c2C(=O)N1C1CCCCC1", "hERG current change (%, negative = inhibition) at 1uM": 14.9}
{"smiles": "Cc1ccc2oc(-c3cc(NC(=O)c4ncn[nH]4)ccc3O)nc2c1", "hERG current change (%, negative = inhibition) at 1uM": 16.9}
{"smiles": "Cc1cc(C(=O)CSc2nnc(-c3ccncc3)n2-c2ccccc2)c(C)n1C", "hERG current change (%, negative = inhibition) at 1uM": -8.42}
{"smiles": "COc1ccccc1OCC(=O)Nc1cccc(C(=O)N2CCOCC2)c1", "hERG current change (%, negative = inhibition) at 1uM": 7.16}
{"smiles": "Cc1ccc(S(=O)(=O)N2CCN(C(C(=O)Nc3ccc(F)cc3)c3ccccc3)CC2)cc1", "note": "(stereo not shown)", "hERG current change (%, negative = inhibition) at 1uM": -0.385}
{"smiles": "O=C(/C=C/c1cccs1)NNC(=O)c1ccccc1", "hERG current change (%, negative = inhibition) at 1uM": 15.2}
{"smiles": "CC(C)CCNC(=O)C(c1ccc(O)cc1)N(Cc1cccs1)C(=O)C1COc2ccccc2O1", "note": "(stereo not shown)", "hERG current change (%, negative = inhibition) at 1uM": 7.75}
